{"source": "PubChem BioAssay AID686971", "about": "(National Center for Advancing Translational Sciences (NCATS), 2013)", "note": "In all, about 360,000 compounds went through this assay and about 7,500 (2.1%) were called active. Inconclusive means that the source gave no clear call. Such entries were picked first, then a sample of the others. The call rests on the fitted dose curve; in most records, active means well fitted cell-killing curve with a large enough effect; inconclusive means small, poorly fitted or top-dose-only effect, or effect the other way, or another doubt; inactive means no such curve, though single readings can be large or run the other way. Potencies of inconclusive entries are left out as doubtful fits. Potency means the concentration at half of the fitted maximal effect; tags describe the fitted curve by direction and shape.", "data": [{"assay": "qHTS for induction of synthetic lethality in tumor cells producing 2HG: qHTS for the HT-1080-IDH1KD cell line;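 on activity, negative = toxicity: 0% = DMSO wells and -100% = cell-free medium wells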", "settings": "HT-1080 IDH1 knockdown viability, ATP luminescence, 48 h; activity, negative = toxicity: at 46.1 µM (top of the series) unless noted", "procedure,_shortened": "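Knockdown cells (IDH1KD HT-1080) received compounds 2 h after plating at 750 cells/well and were kept 48 h at 37 °C in 5% FBS RPMI. A CellTiter-Glo luminescence read gave % activity for curve fitting.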", "values": [{"smiles": "CCN(CC(O)Cn1c2ccccc2c2ccccc21)S(=O)(=O)c1ccc(F)cc1", "note": "(stereo not given)", "Potency": "inconclusive [cytotoxic, single point]"}, {"smiles": "CCCCCCn1c2c(c(=N)c3c1CCC3)CCC2", "Potency": "active: 1.58 µM"}, {"smiles": "O=C(COC(=O)[C@H](Cc1c[nH]c2ccccc12)NC(=O)c1ccc(Cl)cc1)Nc1ccc2c(c1)OCO2", "Potency": "inconclusive [cytotoxic, single point]"}, {"smiles": "COC(=O)N/N=C/c1c(C)c(C(=O)c2ccc(F)cc2)n2ccccc12", "Potency": "inconclusive [cytotoxic, single point]"}, {"smiles": "C=C1c2nc3ccccc3n2C=C(c2ccc(C)cc2)N1c1ccccc1", "Potency": "active: 18.4 µM"}, {"smiles": "COc1ccc(OC)c(/C=C/C(=O)N2C(=O)c3cccc(N)c3C2=O)c1", "Potency": "active: 16.4 µM"}, {"smiles": "O=C(Nc1cccc(Cn2cccn2)c1)c1cc2c(s1)CCCC2", "Potency": "inconclusive [cytotoxic, single point]"}, {"smiles": "CC(=O)Nc1cccc(-c2ccnc3c2CC(C)(C(=O)Nc2cccc(OC(F)(F)F)c2)O3)c1", "note": "(stereo not given)", "Potency": "inconclusive [cytotoxic, single point]"}, {"smiles": "COc1cccc2c1C(=O)c1c(O)c3c(c(O)c1C2=O)C[C@@](O)(C(=O)CO)C[C@@H]3O[C@H]1C[C@H](N)[C@H](O)[C@H](C)O1", "Potency": "active: 0.326 µM"}, {"smiles": "CN(C)S(=O)(=O)Oc1cccc(C(=O)Nc2ccc(Cl)c(Cl)c2)c1", "Potency": "inconclusive [cytotoxic, single point]"}, {"smiles": "O=C(c1cnn2c1NC(c1ccco1)CC2C(F)(F)F)N1CCN(c2cccc(Cl)c2)CC1", "note": "(stereo not given)", "Potency": "active: 18.4 µM"}, {"smiles": "COc1ccc([C@H]2C[C@@H](O)[C@H](n3cc(C4CC4)nn3)CN2C(=O)c2cccs2)cc1", "activity, negative = toxicity": "inactive: 2.06%"}, {"smiles": "Cc1cc(OCCOCCNC(C)C)cc(C)c1Cl", "Potency": "inconclusive [cytotoxic, partial curve]"}, {"smiles": "CCOC(=O)c1cccc(NC(=O)CN2C(=O)C3C4C=CC(C4)C3C2=O)c1", "note": "(stereo not given)", "activity, negative = toxicity": "inactive: -6.49%"}, {"smiles": "CCOC(=O)N/N=C\\c1ccccc1OC/C=C/c1ccccc1", "Potency": "inconclusive [cytotoxic, single point]"}, {"smiles": "Cc1ccc(C)c2[nH]c(=O)c(CCNC(=O)c3ccc(Br)o3)cc12", "Potency": "inconclusive [cytotoxic, single point]"}, {"smiles": "O=S1(=O)N[C@@H](Cc2ccccc2)COc2cc(N3CCSCC3)ccc21", "activity, negative = toxicity": "inactive: 3.52%"}, {"smiles": "Cc1cc(C)c(O)c(-c2cc(C(=O)NCc3ccccc3)[nH]n2)c1", "Potency": "inconclusive [cytotoxic, single point]"}, {"smiles": "CCOc1ccc(N(CC(=O)Nc2ccc3c(c2)OCCO3)S(=O)(=O)c2c(C)noc2C)cc1", "activity, negative = toxicity": "inactive: -9.56%"}, {"smiles": "Cc1cc(NC(=O)CSc2c3c(nc4ccccc24)CCC3)no1", "Potency": "inconclusive [cytotoxic, partial curve]"}, {"smiles": "CCOC(=O)c1ccc(NC(=S)Nc2ccc3[nH]c(=O)[nH]c3c2)cc1", "Potency": "inconclusive [cytotoxic, partial curve]"}, {"smiles": "CCN(C(=O)CSc1nnc(C)n1Cc1ccccc1)C1CCS(=O)(=O)C1", "note": "(stereo not given)", "activity, negative = toxicity": "inconclusive: 0%"}, {"smiles": "COc1ccc(C=CC(=O)c2cc(O)ccc2O)cc1", "Potency": "active: 18.4 µM"}, {"smiles": "CCCCCCNC(=O)O[C@H]1Cn2c(=O)ccc(=O)n2[C@@H]2CN(S(=O)(=O)c3ccc(C)cc3)C[C@]12O", "Potency": "active: 23.1 µM"}, {"smiles": "CCCC(=O)Nc1ccc(NC(=O)c2cc3ccccc3o2)c(OC)c1", "Potency": "inconclusive [cytotoxic, single point]"}, {"smiles": "COC(=O)c1ccc(COc2ccccc2/C=C(\\C#N)C(=O)Nc2c(C)cccc2C)cc1", "Potency": "active: 18.4 µM"}, {"smiles": "Cc1c(CCOC(=O)CC23CC4CC(CC(C4)C2)C3)sc[n+]1CC(=O)c1ccc(Br)cc1", "Potency": "inconclusive [cytotoxic, single point]"}, {"smiles": "COc1ccc(S(=O)(=O)N(C)[C@H]2C[C@H]3c4cc(Oc5ccccc5C)ccc4CCN3C(=O)[C@H]2[C@H](C)O)cc1", "Potency": "inconclusive [cytotoxic, single point]"}, {"smiles": "COc1ccc(/C=C2\\COc3ccccc3C2=O)cc1OC", "Potency": "active: 18.4 µM"}, {"smiles": "NC(=Nc1nc(-c2ccccn2)cc2ccccc12)c1ccccn1", "Potency": "inconclusive [cytotoxic, full curve]"}, {"smiles": "O=C(Nc1ccc(Cl)cc1)C1C2CCC3C(CCC21)C3(Cl)Cl", "note": "(stereo not given)", "Potency": "inconclusive [cytotoxic, single point]"}, {"smiles": "COC(=O)C1=C(C)NC(C)=C(C(=O)OC)C1c1ccc(N(C)C)cc1", "Potency": "inconclusive [cytotoxic, single point]"}, {"smiles": "CCc1nnc(NC(=O)c2ccc(S(=O)(=O)N3CCCc4ccccc43)cc2)o1", "Potency": "active: 7.08 µM"}, {"smiles": "N#CSCC(=O)c1cccc2ccccc12", "Potency": "inconclusive [cytotoxic, single point]"}, {"smiles": "Cc1cccc(C(=O)N2CCC(c3nc(-c4ccc(S(=O)(=O)N5CCOCC5)cc4)no3)CC2)c1", "activity, negative = toxicity": "inactive: -0.67%"}, {"smiles": "Cc1ccc(SCC(=O)Nc2ccc(S(=O)(=O)Nc3nccs3)cc2)cc1", "activity, negative = toxicity": "inactive: 3.01%"}, {"smiles": "O=C(NC1CCN(C(=S)NCCc2ccccc2)CC1)C1CC1", "activity, negative = toxicity": "inactive: 10.7%"}, {"smiles": "Cc1c(CCOC(=O)c2ccc(N3CCOCC3)c([N+](=O)[O-])c2)sc[n+]1CC#N", "Potency": "inconclusive [cytotoxic, single point]"}, {"smiles": "COc1cc(OC)cc(C(=O)NCC(=O)N2CC=C(c3ccccc3)CC2)c1", "Potency": "active: 13 µM"}, {"smiles": "COC(=O)c1c[nH]n2c(=O)c(Cc3ccc(F)cc3Cl)c(C)nc12", "Potency": "inconclusive [cytotoxic, single point]"}, {"smiles": "Cc1[nH]c2ccccc2c1SCC(=O)NNC(=O)Nc1ccc(OC(F)(F)F)cc1", "activity, negative = toxicity": "inactive: -22.8%"}, {"smiles": "O=C1C(NS(=O)(=O)c2cccs2)=C(N2CCN(c3cccc(C(F)(F)F)c3)CC2)C(=O)c2ccccc21", "Potency": "inconclusive [cytotoxic, single point]"}, {"smiles": "Cc1[nH]c2ccccc2c1N=Nc1ccc(F)cc1", "Potency": "inconclusive [cytotoxic, single point]"}, {"smiles": "CN1OC[C@@H]2CN(Cc3cc(Cl)cc(Cl)c3)[C@H](c3cccc(Br)c3)C[C@@H]21", "Potency": "inconclusive [cytotoxic, partial curve]"}, {"smiles": "COc1ccccc1Cn1c(=S)[nH]c2cc(C(=O)N3CCCC(C)C3)ccc2c1=O", "note": "(stereo not given)", "Potency": "inconclusive [cytotoxic, single point]"}, {"smiles": "COc1ccc(C(=O)COC(=O)CCn2nnc(-c3cccc(O)c3OC)n2)cc1", "activity, negative = toxicity": "inactive: 14.6%"}, {"smiles": "COC(=O)C[C@@H]1C[C@@H]2c3cc(NC(=O)Cc4ccncc4)ccc3O[C@@H]2[C@@H](CO)O1", "activity, negative = toxicity": "inactive: 6%"}, {"smiles": "CCOC(=O)N1CCN(C(=O)COc2ccc3c(c2)C(=O)CC(C)(C)O3)CC1", "activity, negative = toxicity": "inactive: -2.69%"}, {"smiles": "CCOc1ccc(N(C(C)C(=O)Nc2ccc(OC)cc2)S(C)(=O)=O)cc1", "note": "(stereo not given)", "Potency": "inconclusive [rising, partial curve]"}, {"smiles": "CC1C/C(=C/c2ccccn2)C(=O)/C(=C/c2ccccn2)C1", "note": "(stereo not given)", "Potency": "active: 0.58 µM"}, {"smiles": "Cc1cc(N2CCN(c3ccccc3)CC2)nc(-n2nc(C)cc2C)n1", "Potency": "active: 1.12 µM"}, {"smiles": "CCOC(=O)C1=C(N)OC2=C(C(=O)CC(C)(C)C2)C1c1ccc(C)s1", "note": "(stereo not given)", "Potency": "inconclusive [rising, partial curve]"}, {"smiles": "CC1(C(=O)Nc2ccccc2Cc2ccccc2)CCN1CCc1ccccc1", "note": "(stereo not given)", "Potency": "inconclusive [cytotoxic, single point]"}, {"smiles": "COc1ccc(CC(N)c2csc(Nc3cc(NCCCO)ncn3)n2)cc1", "note": "(stereo not given)", "Potency": "inconclusive [cytotoxic, single point]"}, {"smiles": "Cc1ccc(NC(=O)c2sc(N)nc2-c2ccc([N+](=O)[O-])cc2)c(C)c1", "Potency": "inconclusive [cytotoxic, single point]"}, {"smiles": "N#CC1=C(N)SC(N)=C(C#N)C1c1cccc(Oc2ccccc2)c1", "Potency": "inconclusive [cytotoxic, single point]"}, {"smiles": "CCOCCCNC(=O)CNC(=S)N(Cc1ccccc1F)C1CCCCC1", "activity, negative = toxicity": "inactive: 0.912%"}, {"smiles": "CC(=O)OCC1(C)CN(c2ccccc2)NC1=O", "note": "(stereo not given)", "Potency": "active: 23.1 µM"}, {"smiles": "COc1cc(/C=C/C(=O)c2ccc(C)c([N+](=O)[O-])c2)cc(OC)c1O", "Potency": "inconclusive [cytotoxic, single point]"}, {"smiles": "CCC/C(O)=C1\\C(=O)CC(C)(C)CC1=Nc1ccc(OC)cc1OC", "Potency": "active: 7.31 µM"}, {"smiles": "CCC1NC(=O)c2ccccc2N1c1cccc(Cl)c1", "note": "(stereo not given)", "Potency": "inconclusive [cytotoxic, partial curve, poor fit]"}, {"smiles": "Cc1ccc(NS(=O)(=O)c2cc3c4c(cccc4c2)C(=O)NC3=O)cc1C", "Potency": "active: 5.17 µM"}, {"smiles": "Cc1c(CCOC(=O)c2ccccc2)sc[n+]1CC(=O)c1ccc(Br)cc1", "Potency": "inconclusive [cytotoxic, single point]"}, {"smiles": "COc1ccc(C(C(=O)NC(C)(C)C)N(Cc2cccnc2)C(=O)CCC(=O)Nc2cc(C)on2)cc1", "note": "(stereo not given)", "activity, negative = toxicity": "inactive: 13.4%"}, {"smiles": "COc1cc2c(cc1OC)C(C)N(C(=O)c1c(C)noc1C)CC2", "note": "(stereo not given)", "Potency": "inconclusive [cytotoxic, single point]"}, {"smiles": "C=CCN(c1ccccc1)S(=O)(=O)c1cccc(C(=O)NCC(c2ccccc2OC)N2CCCC2)c1", "note": "(stereo not given)", "Potency": "inconclusive [cytotoxic, single point]"}, {"smiles": "COc1ccccc1NC(=O)CN1CCN(CC(=O)Nc2ccccc2Cl)CC1", "Potency": "inconclusive [rising, single point]"}, {"smiles": "CCOC(=O)CCN", "activity, negative = toxicity": "inactive: 7.59%"}, {"smiles": "CS(=O)(=O)c1ccc(C(=O)Nc2ccccc2N2CCOCC2)c(Cl)c1", "activity, negative = toxicity": "inactive: 9.69%"}, {"smiles": "O=C(Cc1ccc(Cl)cc1)Nc1ncc([N+](=O)[O-])s1", "Potency": "inconclusive [cytotoxic, single point]"}]}]}
